# Reference: the supplement of paper PMC11417369
# ± gives the standard deviation of the averaged measurements. This is one part of the list.
# System: PfAP2-G AP2 domain (GST-tagged)
# Test: gcPBM binding intensity (ln(normalized median fluorescence intensity)); higher = stronger DNA binding
# Summary of the method: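 Probes on an Agilent 4 × 180k array were primer-extended, double-stranded and 36 bp long, taken from intergenic genomic regions, with negative controls added. GST-tagged P. falciparum DNA-binding domains from E. coli, about 25 μg on average, were applied to the array for 1 h in 1× PBS containing 1% milk, 0.2 mg/ml BSA, 0.5% salmon testes DNA and 0.03% Triton X-100. Binding intensity, obtained after Alexa488 anti-GST antibody detection and a 488 nm scan, is the highest Masliner-normalised natural-log median intensity across replicate spots of either probe orientation.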
row,Sequence,gcPBM binding intensity (ln)
1,GATAAAATCACTGGTGCATGTAGATATATAATATTA [TGCATGCA_site589],10.1 ± 0.17
2,ATATGCTTATTGTAAAGTACATTATTATTTTTCCTA [XGTACX_site5479],10.9 ± 0.54
3,AATTAACAAAAACACACACACACACCGACAAAAAAA [CACACA_site4444],10.2 ± 0.27
4,TATTTATACCTATACACACACACACGGATATTTATA [CACACA_site7123],10.3 ± 0.2
5,TATTTTGATTATTCAGTGTATAAATATATATATATA [CACACA_negctrl_site545],10 ± 0.34
6,ATGAATAAATAAGACACACACGAAAATAAGTAAAAA [CACACA_site4216],10.2 ± 0.13
7,TAAAAAAAAATATATAAACACACATATTTATATACA [CACACA_site8469],9.58 ± 0.14
8,AATATATTGTTTCCTGATATTAAATTCAATTTAATG [GTGCAC_negctrl_site22],9.93 ± 0.014
9,TAAAGAGAGACATCAACACACATACGTATGTATAGA [CACACA_site4896],9.99 ± 0.18
10,ATTTACCTATATATTTGTACTTACATAATGCTACCT [XGTACX_site2693],11.1 ± 0.57
11,CACGCATACAGACACACACACACACCGATATATATA [CACACA_site8113],10.3 ± 0.28
12,CATGAAAATATTATGTGTACTTAATGCACATTCAAA [XGTACX_site1952],11.3 ± 1
13,CCAATGTTTTCTTGTGTACACATCATTAAAGAAAAA [CACACA_site5300],11.6 ± 0.88
14,ATTCTATATGAAAAATGTACAAATAAAAATTCTAAG [XGTACX_site8900],10.9 ± 0.59
15,CTCTTCATATATAATTGTACACACAAAAACGACATT [XGTACX_site4287],11.4 ± 0.95
16,AAAAAAAAACAAAAAAGTACAAAATAAAAATACGTT [XGTACX_site4566],11.3 ± 0.83
17,CCTATCCATGCATATACACACATATCTATTTATATA [CACACA_site6886],10.1 ± 0.078
18,TATATATATTTTGGCTGTACATCAGCGTATATTTTT [XGTACX_site3233],10.8 ± 0.58
19,AATAAATATATACATTGTACATATATAATATATATA [XGTACX_site1458],10.9 ± 0.6
20,TAAATTATAATATGCACACAAAATGTTATATTAAAA [CACACA_site376],9.97 ± 0.26
21,ATGGATAATAAGTTTACACACAAAAAAAAAGAAAAA [CACACA_site861],10.1 ± 0.33
22,AAAAAAAAATTGTGTACACATAATTATATCATATGT [CACACA_site4500],11.7 ± 0.89
23,ATTAAATAAACCATTACACACTTTTATGTTTTGAAA [CACACA_site1143],9.995 ± 0.064

row,Sequence,gcPBM binding intensity (ln)
1,TTTTTATTGGTGAATACACACGTATATATATATTAT [CACACA_site8756],10.3 ± 0.19
2,AAAAAAAAAAAATACACACACATAAAAAAAAAAATA [CACACA_site1858],9.96 ± 0.41
3,ATTATATTAACAATGACATGCAATTCTTAATCCTTA [TGCATGCA_site648],9.99 ± 0.057
4,ATAAGAATCATATTTAAACACACATACATATATATA [CACACA_site9106],9.895 ± 0.049
5,AGAAAGAAGATATATACACACAAAAAAAGATATATA [CACACA_site6779],9.955 ± 0.035
6,TATAAATATTTATACACACACACATTAATACCTATA [CACACA_site7604],10.28 ± 0.085
7,AAAAGAAGATAATACAGTACAGAATAATATAAAATA [XGTACX_site5962],10.8 ± 0.33
8,TTCTTTCTAGAATATTGTACATATATTGTTATTATA [XGTACX_site8425],11 ± 0.45
9,CACAAACAAAAACACACACACACACCGACAAAAATG [CACACA_site5362],10.5 ± 0.38
10,AAATAAAATAAATAATATAAAATAATATATAAAAAA [CACACA_negctrl_site1777],9.415 ± 0.049
11,TTTTGTTAAAAAGATGTATATTTTATAAATATTTAT [CACACA_negctrl_site101],9.66 ± 0.16
12,AACACCAATTCATATGCACACACATCTGCATATTAT [CACACA_site8523],10.12 ± 0.078
13,TTTATAAATATTCTCACACACTTTTTATTTTAACAA [CACACA_site6454],9.94 ± 0.042
14,TATAGAAGCAAATTATGTACACAATATGGAAAATCA [XGTACX_site3345],11.4 ± 0.86
15,CATACATATAAACACACACACACACCCACCCACAAA [CACACA_site8059],10.5 ± 0.39
16,TAGTTAGCCCAAGGGGTGCTAATTACTATCTAAATA,9.99 ± 0.3
17,TAATGTATCTAAAATTGTACAAATATAAATATAAAT [XGTACX_site2764],10.9 ± 0.49
18,GTCGAGGATATATAAAGTACATATATATATATGATA [XGTACX_site1128],11.1 ± 0.71
19,GTGTCAAATTTTATAACACACAAAAGGTTATATAAG [CACACA_site7839],10.09 ± 0.078
20,ATAGTTTCTGGTAGCTGTACGAGTCGTAGAGTGCAG [XGTACX_site2022],11.4 ± 0.64
21,TAGTTACCTTAATATTGTACTTTTCTTTCATATATG [XGTACX_site1309],11.3 ± 0.8
22,CACTAAATAAGGAAAGTGCATAAAATAAAGGTTATA [GTGCAC_site9793],10.2 ± 0.15
23,ATTTAAAAAATATATTGTACATATTTTATTATGTTT [XGTACX_site2984],11 ± 0.63

row,Sequence,gcPBM binding intensity (ln)
1,AAAAAAAAAAAAAAAAAAAAAAAAAAATGAGATACA [GTGCAC_negctrl_site160],11 ± 0.65
2,TATATATATAAATACACACACACAAAAAAAAAAAAA [CACACA_site4930],9.96 ± 0.5
3,AATTTAATTGTGAGAGTGCGTACTGCTCCACATATA,11.3 ± 0.94
4,ATGTGTTTGTATATATGTACATATTTATGTTATTTC [XGTACX_site6960],11.4 ± 0.62
5,TTTTGATATATGAATATTAAGTTATATAATATTTTA [TGCATGCA_negctrl_site39],9.51 ± 0.16
6,AAAAGGATATATGAAAGTACAAAGGTATAGTATATT [XGTACX_site7385],10.8 ± 0.37
7,TACAGTAAAAATAGTTGTACTTGTTTATTTCTTCTT [XGTACX_site7674],11.3 ± 0.88
8,ATGATATATTTAATAGTGCACTAATTAAAATTATTA [GTGCAC_site9418],10.3 ± 0.39
9,ATCTTATCATTTTAAAGTACATAATTAATTCTTTTT [XGTACX_site3999],11.2 ± 0.67
10,TATAACAAATAAAAATGTACATATATATAATATATA [XGTACX_site6173],11.1 ± 0.56
11,ATAATACCAGAATAGATTTAAATGAATATTTTATTT [CACACA_negctrl_site476],9.32 ± 0.7
12,GGTTATATGATAGGATGTACAATTAAAAGTAAATAT [XGTACX_site5083],11 ± 0.57
13,TTATTATTCTTAAGGATATAACAAAAAAGAAAAATT [CACACA_negctrl_site1402],9.97 ± 0.18
14,TCCTATAAACAAATTTGTACATATAAGAATATATTC [XGTACX_site3892],10.8 ± 0.55
15,TATTTATATTTATATACACACATATATACCTATATA [CACACA_site7820],9.9 ± 0.071
16,GATTATTTTAGAAGTACACACATTTATATATAATAA [CACACA_site5429],11.5 ± 0.96
17,TATTCTAGAATTTTAACACACAAGAATATAAACTTT [CACACA_site6757],9.82 ± 0.11
18,ATTTTTAAATACAGTACACACATGGGTTTAAATTAT [CACACA_site2884],11.2 ± 0.79
19,TAAAATATAATGATCACACATATAAACAAGTGGGTA [CACACA_site4651],9.99 ± 0.057
20,GCCGCACCCAGATACGCACACAAGAAAAAAATATTC [CACACA_site3456],10.7 ± 0.47
21,TATGGATAAATAAATACACACATAAATTTAAATATA [CACACA_site1282],10.04 ± 0.078
22,TATAAACGCACCTACACACACAACGTAAATGCATTG [CACACA_site7120],10.3 ± 0.24
23,TGAACATTATAGAAAAGTACTTAGTTTTTAAAAAGA [XGTACX_site6864],11.2 ± 0.78

row,Sequence,gcPBM binding intensity (ln)
1,TATTCAAAACGGTATTGTACAAATTTTATAATTTAA [XGTACX_site6928],10.9 ± 0.43
2,TTTTTTTTTTTTTACTGTACTTAATAAGATTGAATA [XGTACX_site2384],11.4 ± 1.1
3,TATAAAAAAAAAAAAAAAAAAAAAAAAAAAAAAAAA [TGCATGCA_negctrl_site42],9.71 ± 0.042
4,GTTTATATGTTCATAGTGCATATATGTTGATTTATT,9.965 ± 0.064
5,ATAAATATTATTTTACGTACATATTTATGAAGTATT [XGTACX_site8746],11.3 ± 0.81
6,CAGGAGAGAAAATATCGTACAAGCAAAAATAAGTGG [XGTACX_site8557],11.1 ± 0.64
7,GTAGAGAAAAAAATGTGGACACAAAAAATAAAAAGG [XGTACX_site4058],11.6 ± 0.95
8,TTTTTTTTTTTTTGCACACACATATATAAATATATA [CACACA_site3949],9.95 ± 0.44
9,TATATTGCAAAAAGTACACACATAAATAAATACATA [CACACA_site6589],11.6 ± 1.1
10,TATTATTTTAAGATTGTTTATGTAAAGAATTATGAA [CACACA_negctrl_site445],9.84 ± 0.28
11,TGTGTATATATGCTGGTGCAACTTTAAAAAATAATC,10.2 ± 0.3
12,AAATTATATACCACAGTGCAAAAGGCAGGTATACGT,10.3 ± 0.13
13,TATTTATTTATTTTGTTATAATTAAAATGGATACAT [XGTACX_negctrl_site387],9.97 ± 0.32
14,AGTAGTCTGGAGAAGAGTACATAGTATCTGGTAGCT [XGTACX_site2017],11.3 ± 0.81
15,CTACACACTTATAAATGTACAGGATTTAAGTATATG [XGTACX_site8245],10.9 ± 0.49
16,TGTAATAATCTTCATTTCTTTTTTTTTTTTTTTTGT [CACACA_negctrl_site1388],9.53 ± 0.15
17,AAATATAATAATACATTGCACATATATTATATATAT [TGCATGCA_negctrl_site611],9.9 ± 0.15
18,TAACTTAATAAAAAAAGTACATATATTTTTAATAAA [XGTACX_site2707],11.4 ± 1
19,AGTGAATATTACGAAACACACAAAAAAATACATTTC [CACACA_site511],10.03 ± 0.014
20,ATATAAGTTTTTTCTCAAAAAGTATAACGAGCATGA [CACACA_negctrl_site1375],10.12 ± 0.049
